From the supplement of paper PMC11417369
± gives the standard deviation of the averaged measurements. This is one part of the list.

The sequences below were run on PfAP2-G AP2 domain (GST-tagged) (assay: gcPBM binding intensity (ln(normalized median fluorescence intensity)); higher = stronger DNA binding).
How it was run: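 Binding intensity is the highest Masliner-normalised natural-log median intensity over replicate spots in either probe orientation. To obtain it, GST-tagged P. falciparum DNA-binding domains made in E. coli were incubated for 1 h on an Agilent 4 × 180k array of primer-extended double-stranded 36-bp intergenic genomic probes plus negative controls. Detection used Alexa488 anti-GST antibody with scanning at 488 nm.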

Sequence	gcPBM binding intensity (ln)
AGAAAAAGGAGAAAAAGTACAAAACGGAGTAGTATT [XGTACX_site3858]	11.1 ± 0.59
AAAAATTATATACATCATAGAATTAACATTTTAAAT [GTGCAC_negctrl_site369]	9.55 ± 0.11
TTTCATAACAAAAAAGTGCAAAATAGCACGAACATT [GTGCAC_site9703]	10.3 ± 0.16
ATTTCTCAATCGTAATGTACAAAAAAAAGGGAAAAG [XGTACX_site2781]	10.8 ± 0.62
ATATTTAAATAATATTCACACACAAAATTATATTTT [CACACA_site7955]	9.955 ± 0.064
CATATAAAAATATATGCACACAAATAAAAAATTATA [CACACA_site9210]	10.1 ± 0.11
ACAAACAAAGAAAGAACACACATACACAATATACCT [CACACA_site5566]	10.055 ± 0.007
ATGACTTACATATATAGTACTTTGTTTTGGAGTTGC [XGTACX_site94]	10.8 ± 0.45
ATAAATATAATAATCATACACACCAAAGAGAATATT [CACACA_site1888]	9.93 ± 0.11
AAAGTTATTATGCAATAATTATGATAATTAATATAT [TGCATGCA_negctrl_site316]	9.73 ± 0.11
TATGAGGAAACGTGGTGTACTTTTTTTTAATAAAAA [XGTACX_site1351]	11.6 ± 0.93
ACATATATATATATATATATATATATATCATTATGT [CACACA_negctrl_site724]	10.5 ± 0.43
ATATATTATATATATTGTACATGTAAAATTTTAAAA [XGTACX_site7197]	11.1 ± 0.71
AAAAATTTGGCATACACACACACACCCACACCCACA [CACACA_site587]	10.6 ± 0.44
TATGTATTTAAATTAACACACATATGTGGTTAATAG [CACACA_site5697]	9.89 ± 0.014
ACTCTTGATCTGAATGCACACAATAAATTATATAAA [CACACA_site1438]	10.3 ± 0.4
AGTATAATAATATTTACACACGCATATGTTATATAT [CACACA_site1476]	10 ± 0.085
AAAACGCTACATAATTGTACATGTAGAAATAAAAGC [XGTACX_site2895]	11 ± 0.64
TCTAAAAATAAGAACACACACATATAAGCATATAAA [CACACA_site2274]	9.92 ± 0.085

Sequence	gcPBM binding intensity (ln)
TACTGCCTTCCATACCCACACACTTCCCATATATTT [CACACA_site2705]	10.095 ± 0.007
ATTTAAAAAAAAAAAACACACATGTGAATAGAAAAG [CACACA_site3323]	10.2 ± 0.23
TATGTATATATATATATATATATATATATATATATA [TGCATGCA_negctrl_site491]	9.75 ± 0.67
ATGGCCACTGTGAAATGTACAAAAAAAAAATACAAT [XGTACX_site2874]	11 ± 0.45
TTCCAAAATTGCACATGTACAAAATTCTCCAATATG [XGTACX_site3419]	10.9 ± 0.62
TTTATATTATTTAATGAGAAATAATTATAAACAATT [TGCATGCA_negctrl_site65]	9.94 ± 0.38
TTTTTTTTTTTTTTTTGTACATATTTTAATTTGTTT [XGTACX_site6297]	10.9 ± 0.99
AAAAAAAAAAAATAATGTACATATGTATTTGAGAAA [XGTACX_site3572]	11.1 ± 0.63
CATACAAATTAATATGTACACACAAATATATATATA [CACACA_site8605]	11.5 ± 0.95
AGTAGTCTGGAGAAAAGTACATAGTATCTGGTAACC [XGTACX_site2024]	11.2 ± 0.67
TTTTACAATAATAAGTAGATCTAAATAAAGATTTAA [GTGCAC_negctrl_site547]	9.62 ± 0.18
TAATTGTACGCCAATACACACAGAATTAAAATGTAG [CACACA_site4234]	11.6 ± 1.1
TTTTTAAAGTTTTATACACACACCAAAATTATTCTA [CACACA_site600]	10.2 ± 0.26
TTGCCCATTTAATTAACACACAAATATTTATATTCT [CACACA_site738]	10.4 ± 0.36
GTTAAATAATATATATGTACATACATAAGTGTTACT [XGTACX_site4778]	11.1 ± 0.57
ATTTCCTTTTGTTTCAGTACATAATTTTTTTTTTTT [XGTACX_site4842]	11.1 ± 0.63
GATATTCATAGAAACACACATACAAATTATGTATAT [CACACA_site144]	9.94 ± 0.057
TATGTGCACCCATGTACATGCGGACATATGTTATAT [TGCATGCA_site383]	11.5 ± 0.8
ATACATAAAATTAAAACACACATTTTATTAAATACG [CACACA_site2167]	9.86 ± 0.13

Sequence	gcPBM binding intensity (ln)
AAAAAATATATTTGCACACTCAAAAAAAAAAAAAAA [CACACA_site859]	9.89 ± 0.35
AGTTATATGGTTAATACACACAACAAATGTTTCTTC [CACACA_site6642]	10.01 ± 0.085
GTGTGATGGTACAATATACACACTTAAAAAAAAAAA [CACACA_site8769]	10.8 ± 0.84
TACCTAATATGTTATACACACATTATAAGTACATAT [CACACA_site7206]	11.6 ± 0.95
AATATAACTTAGAATTGTACATAAAAAAAAATATAT [XGTACX_site3313]	11.1 ± 0.73
TAAGAAATAAATAGTACACACATAGACACACGCACA [CACACA_site6821]	11.3 ± 0.79
CTCTTTTCTTATAATACACACAGTAATATATATATA [CACACA_site1520]	10.4 ± 0.38
ATTTATTTATACAAAGTGCAATATTTTGTTAAAGTC [GTGCAC_site9618]	9.99 ± 0.16
AAACAAAATATGGTTCATGAGCAAAAGTTTATTTTG [XGTACX_negctrl_site531]	9.84 ± 0.085
AATGTAAAATATAAATGTACATATATATATATATAT [XGTACX_site5071]	11 ± 0.45
TATAAAATACATTTATAATATATATATATATTTTTT [TGCATGCA_negctrl_site435]	9.66 ± 0.11
ATATGAAATATATAAATATGTTTATATATATATATA [GTGCAC_negctrl_site94]	9.89 ± 0.58
TGTGTTTATACGTTTTGTACATATTTTTATTTTGTA [XGTACX_site6425]	11 ± 0.49
TTTACATCAACCTTTTCACACATTCATATACAGATA [CACACA_site6152]	10.1 ± 0.13
TCATTAAAGGAAAAATGTACGTATAAATAAATATAT [XGTACX_site2587]	11.3 ± 0.61
TAATGGAAACCATTTATTTTCTGCAATATATTTTTT [CACACA_negctrl_site1653]	9.96 ± 0.16
ATACATATATATATATGTACACATAAACATGAGTGA [XGTACX_site3200]	11.4 ± 0.76
TAAATTTGTGGGATTTCACACAGGTTTATTTACATT [CACACA_site5455]	9.81 ± 0.14
